Measured values taken from PMC6919601, “Identification of Plasmodium dipeptidyl aminopeptidase allosteric inhibitors by high throughput screening” (PLoS ONE, 2019).
The campaign covered roughly 110,000 compounds. About 230 (0.21%) showed an effect of 50% or more. The list shows a part of the results.

These compounds were tested against DPAP1 (Plasmodium falciparum, UniProt Q8IIJ9) (assay: primary screen, percent inhibition; read by cleavage of a fluorogenic dipeptide substrate; higher = more effect of the substance).
Parameters: species or system P. falciparum D10 trophozoite lysates; single well
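Further: 30 min substrate incubation versus DMSO and 10 µM JCP410 controls.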

Sequence of DPAP1 (Q8IIJ9 whole entry, looked up): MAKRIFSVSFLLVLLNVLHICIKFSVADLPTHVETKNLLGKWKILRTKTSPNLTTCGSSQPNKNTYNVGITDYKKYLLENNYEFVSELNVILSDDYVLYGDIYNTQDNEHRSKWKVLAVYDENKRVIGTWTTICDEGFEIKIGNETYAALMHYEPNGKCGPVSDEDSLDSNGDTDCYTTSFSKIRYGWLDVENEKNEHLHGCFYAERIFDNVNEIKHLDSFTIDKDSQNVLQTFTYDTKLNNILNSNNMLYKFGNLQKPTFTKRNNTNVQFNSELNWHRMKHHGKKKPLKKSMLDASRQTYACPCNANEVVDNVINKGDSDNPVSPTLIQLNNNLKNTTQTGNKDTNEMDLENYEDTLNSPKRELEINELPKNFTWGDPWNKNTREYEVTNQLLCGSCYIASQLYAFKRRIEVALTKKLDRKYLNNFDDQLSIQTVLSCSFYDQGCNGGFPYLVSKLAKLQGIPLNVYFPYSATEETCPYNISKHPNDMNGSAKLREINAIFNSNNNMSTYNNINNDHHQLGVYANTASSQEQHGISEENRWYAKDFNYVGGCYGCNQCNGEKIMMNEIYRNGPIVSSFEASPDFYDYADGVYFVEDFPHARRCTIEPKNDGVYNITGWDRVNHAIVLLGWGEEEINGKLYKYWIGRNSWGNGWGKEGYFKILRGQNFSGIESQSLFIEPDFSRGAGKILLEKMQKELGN

Row | SMILES | % Inhibition @ 10 uM
1 | CCOc1ccc(-c2[nH]nc3c2C(c2ccc(F)cc2)C(C#N)=C(N)O3)c(OCC)c1 (stereo not shown) | -1.06%
2 | Cn1nc(-c2ccc(OCC(=O)N3CCOCC3)cc2)c2ccccc2c1=O | 2%
3 | Fc1ccc(CN2CCN(Cc3ccccc3)CC2)cc1Br | 3.1%
4 | Cc1ccc(-n2nc(C)c3c(C(=O)NCc4ccc(CN5CCCCCC5)o4)cc(C)nc32)cc1 | -1.3%
5 | CC(C)CC(NC(=O)c1cnc(-c2cccnc2)s1)C(=O)NCC#N (stereo not shown) | -2.35%
6 | CCSc1nc2ccccc2c(=O)n1Cc1ccccc1 | -2.83%
7 | O=C(CSc1nc2c(sc3ccccc32)c(=O)n1CCc1ccccc1)NCC1CCCO1 (stereo not shown) | 2.24%
8 | Cc1ccc(-n2cc(/C=C(\C#N)c3nc4ccccc4[nH]3)cn2)cc1C | -9.11%
9 | Cc1cccc(-n2nc(C)c(C(=O)NC(C)C)c2-n2cccc2)c1 | 3.08%
10 | C=CCOC(=O)c1cc(-c2ccc(C=C3C(=O)NC(=O)NC3=O)o2)ccc1Cl | 0.997%
11 | CC(NC(=O)c1ccccc1C(=O)NC(C)c1ccccc1)c1ccccc1 (stereo not shown) | 1.08%
12 | Cc1ccc(-n2nc(C)c3c(C)c(CCC(=O)NCc4ccco4)c(C)nc32)cc1C | -0.72%
13 | COc1ccc(-c2cc3c(=O)n(CC(=O)NC4CCCCCC4)ncn3n2)cc1 | 2.07%
14 | O=C1N=C(N2CCCC2)S/C1=C/c1cccc(Br)c1 | -0.48%
15 | CN(C)CC#CCC(O)(c1ccccc1)c1ccccc1 | 2.2%
16 | Cc1cc(NCc2ccc3c(c2)OCO3)ccc1Br | -1.96%
17 | CC(C)OCCCNC(=O)c1ccc(CS(=O)(=O)Cc2ccccc2Cl)o1 | 1.62%
18 | Cc1cc(Cl)ccc1OC(C)C(=O)Nc1sc(C)c(C)c1C(N)=O (stereo not shown) | 6.79%
19 | O=C(CSc1nc2ccsc2c(=O)n1Cc1ccccn1)Nc1nccs1 | -0.456%
20 | O=C(Nc1ccc(Br)cc1)c1cc(S(=O)(=O)NCc2cccs2)ccc1Cl | -3.49%
21 | COc1ccc(-n2nnnc2SCC(=O)c2ccc(O)c(O)c2)cc1 | -5.51%
22 | O=C(NCc1cccnc1)c1cnn(-c2ccccc2)c1-n1cccc1 | 0.137%
23 | Cc1n[nH]c(C)c1CCCOc1cccc(Cl)c1 | -6.12%
24 | Cc1ccccc1Cn1c(CNC(=O)c2ccccc2)nc2ccccc21 | 1.23%
25 | FC(F)(F)c1cc(-c2ccccc2)nc(NC2CCCC2)n1 | -3.79%

Row | SMILES | % Inhibition @ 10 uM
26 | Cc1nc2c(-c3ccccc3)c(C)nn2c(C)c1CC(=O)NCCCN1CCCC1=O | -6.09%
27 | O=C(C1CC(c2ccc(F)cc2)=NO1)N1CCOCC1 (stereo not shown) | -3.94%
28 | c1ccc(CCN2CCOCC2)cc1 | -0.446%
29 | CC(=O)N1N=C(c2ccc(Br)cc2)CC1c1ccccc1F (stereo not shown) | 0.206%
30 | [O-][n+]1onc2cc(Cl)c3nsnc3c21 | 7.04%
31 | Cc1nn(C)cc1CNC(=O)c1cc(-c2ccccc2)nc2ccccc12 | -7.78%
32 | COc1ccccc1-c1c(C)nn2c(N3CCOCC3)cc(C)nc12 | 3.93%
33 | Cn1c2ccc([N+](=O)[O-])cc2c2nc3ccccc3nc21 | -2.42%
34 | COC(=O)c1cc(S(=O)(=O)N(C)Cc2ccco2)c[nH]1 | 2.27%
35 | COc1cccc(C2=CC(c3cccc(OC)c3OC)n3ncnc3N2)c1 (stereo not shown) | 3.32%
36 | Cc1cc(C)nc(SCC(=O)Nc2nc(-c3ccccc3)c(C)s2)n1 | 11.7%
37 | CC(=O)Nc1nc(Sc2nc3c(c(=O)n(C)c(=O)n3C)n2Cc2ccccc2Cl)n[nH]1 | -2.14%
38 | COc1ccccc1NC(=O)C1=C(C)N=C2CCCC(O)=C2C1c1ccccc1C (stereo not shown) | -0.968%
39 | Cc1ccccc1CN1CCN(Cc2c[nH]c3ccccc23)CC1 | 0.138%
40 | COc1ccc(C2CC(=O)NC3=C2C(=O)CC(c2ccc(F)cc2)C3)c(OC)c1 (stereo not shown) | -3.51%
41 | COc1ccc(-c2cc(C(=O)NCCCN3CCOCC3)c3ccccc3n2)c(OC)c1 | 5.61%
42 | O=C(NCCNS(=O)(=O)c1ccccc1)c1c(O)c2ccccc2oc1=O | -2.51%
43 | CC1(C)CC(=O)C2=C(C1)OC(N)=C(C#N)C21CCCC1 | 1.44%
44 | COc1ccc(NC(=O)CN(c2ccc(Oc3ccccc3)cc2)S(C)(=O)=O)cc1 | -3.39%
45 | O=C(CCCN1C(=O)C(c2ccccc2)Oc2cccnc21)N1CCOCC1 (stereo not shown) | -1.81%
46 | CC(C)Cn1cc(C(=O)NCCN(C)Cc2ccccc2)c2c3ccccc3n(C)c2c1=O | -5.77%
47 | COc1ccc(Cl)cc1S(=O)(=O)N1CCCCC1C (stereo not shown) | -1.54%
48 | COc1ccc(C(=O)C2=C(O)C(=O)N(CCN3CCNCC3)C2c2ccc(F)cc2)cc1 (stereo not shown) | 0.487%
49 | CCCSc1nc(-c2ccccc2)cc(-c2ccccc2OC)c1C#N | -1.97%
50 | Clc1cccc(Cl)c1CN1CCN(c2ccccc2)CC1 | 4.8%

Row | SMILES | % Inhibition @ 10 uM
51 | O=C(COc1ccc(Cl)cc1)NC(=O)NCc1ccco1 | -5.35%
52 | Cc1nc2nc(NC(=O)C3CC3)nn2c(O)c1C | 3.66%
53 | CC(=O)Nc1ccc(Br)cc1-c1ccccc1 | 6.53%
54 | COc1ccc(-c2nc(CN3C(=O)CSc4nc(C)cc(C)c43)c(C)o2)cc1OC | -5.15%
55 | CC1=C(C(=O)NC(C)C23CC4CC(CC(C4)C2)C3)C2(CCCCC2)OC1=O (stereo not shown) | -5.58%
56 | CC(=O)c1ccc(N(/C=C2\Sc3ccccc3C2=O)C(=O)c2ccco2)cc1 | 9.01%
57 | O=S(=O)(NC(c1ccccc1)c1ccccc1)c1ccc(-n2cnnn2)cc1 | -4.67%
58 | O=C(Nc1ccccn1)c1onc2c1CCCC2 | -0.0619%
59 | CCNC(=O)c1c(NC(=O)COc2ccc(Cl)cc2)sc2c1CCCC2 | 14.6%
60 | CCOC(=O)c1cnc2ccc(C(=O)OC)cc2c1NCCCN(C)C | 4.74%
61 | CCOCCCNC(=O)NCc1c(-n2cccc2)sc2c1CCCC2 | 0.623%
62 | Cc1ccc2nc3c(cc(C(=O)NCCN4CCOCC4)c(=N)n3CC3CCCO3)c(=O)n2c1 (stereo not shown) | 0.279%
63 | Cc1ccc(SCCC(=O)N2CCC(C(N)=O)CC2)cc1 | 0.709%
64 | O=C(NC1CCCCC1NC(=O)C1CC12CCC2)C1CC12CCC2 (stereo not shown) | 12.8%
65 | COCCN(CCOC)S(=O)(=O)c1ccc(C(=O)Nc2sc3c(c2C#N)CCC3)cc1 | 2.7%
66 | COc1ccc(CCNC(=O)CSc2nc3c(cc2C#N)N2CCC3CC2)cc1OC | -3.07%
67 | CC(C)Cn1c(=O)c2ccccc2n2c(CCC(=O)NCCc3c[nH]c4ccccc34)nnc12 | 5.68%
68 | O=C(COc1ccc(Br)cc1Br)Nc1ccccc1C(F)(F)F | -4.08%
69 | Cc1nn(C(C)C(=O)N2CCC(Cc3ccccc3)CC2)c(=O)c2c1sc1ccccc12 (stereo not shown) | -5.78%
70 | Cc1ccc(-c2cn3c(n2)sc2cc(C(=O)N4CCOCC4)ccc23)cc1 | 17%
71 | CN(CC(=O)N1CCC(Cc2ccccc2)CC1)c1nnc(N2CCCC2=O)s1 | -2.94%
72 | CCS(=O)(=O)N1CCC(C(=O)NCCN2CCCCC2C)CC1 (stereo not shown) | 0.514%
73 | CC(C)C[C@H](NC(=O)N1CCN(c2ccncc2)CC1)C(=O)NCC#N | -5.64%
74 | O=C(O)CCSCCc1ccncc1 | -6.29%
75 | COc1ccc(-c2nc3n(n2)C(c2ccccc2Cl)C(C(=O)Nc2cccnc2)=C(C)N3)cc1 (stereo not shown) | 6.7%

Row | SMILES | % Inhibition @ 10 uM
76 | COc1cccc(Cn2c(N3CCCCC3)nc3c2c(=O)n(C)c(=O)n3C)c1 | -5.14%
77 | CCCn1c(NCc2ccccn2)nc2ccccc21 | -5.34%
78 | Cc1nc2c(-c3ccccc3)c(C)nn2c(C)c1CC(=O)NCCC(C)C | 5.65%
79 | O=C(c1ccc2ccccc2n1)N1CCc2ccccc2C1 | 0.627%
80 | CCCCNS(=O)(=O)c1cc(-c2nn(C)c(=O)c3ccccc23)ccc1C | -2.14%
81 | CCCc1cc(O)n2ncc(-c3ccc(Cl)cc3)c2n1 | -5.28%
82 | COCCO/C(O)=C1\C(C)=NC(=S)NC1c1cccs1 (stereo not shown) | 2.05%
83 | c1ccc2cc(OCCCCN3CCCC3)ccc2c1 | 1.35%
84 | Cc1ccccc1C(=O)NCCNC1=NS(=O)(=O)c2ccccc21 | -3.28%
85 | COCCOc1nc2ccccc2s1 | 5.56%
86 | COc1ccc(CNC(=O)c2sc3nc(-c4ccc(OC)cc4)ccc3c2N)cc1 | 0.727%
87 | COc1ccc(CC(=O)N2CCN(c3cccc(Cl)c3)CC2)cc1 | 0.215%
88 | CCOc1ccc(CCNC(=O)c2cccc3c2C(=O)N(Cc2cccnc2)C3)cc1OCC | 1.23%
89 | NC(=O)c1oc2ccccc2c1N | 3.61%
90 | c1ccc(C2CCC(N3CCC(N4CCCCC4)CC3)CC2)cc1 (stereo not shown) | 4.68%
91 | CC(C)c1ccc(/C=C/C(=O)N2CCN(c3ccc([N+](=O)[O-])cc3)CC2)cc1 | 5.77%
92 | COc1ccc(C2=N/C(=C\C(Cl)=C\c3ccccc3)C(=O)O2)c(Cl)c1 | -1.29%
93 | CCOc1ccc(NC(=O)C2CC3CCC2C3)cc1 (stereo not shown) | -12.1%
94 | COC(=O)C1=C(C)N(C)C(=O)/C1=C\c1cccc(Cl)c1 | -5.28%
95 | C=CCc1cc(/C=C2\SC(=O)NC2=O)cc(OC)c1OC | 4.98%
96 | Cc1c(C)n(C(=O)CN2CCc3ccccc3C2)c2ccccc12 | 3.87%
97 | C=CCN1C(=O)S/C(=C/c2ccc(-c3ccc(C(=O)O)cc3)o2)C1=O | 8.07%
98 | COc1ccc(S(=O)Cc2ccc(C(=O)NC3CC3)o2)cc1 (stereo not shown) | 2.83%
99 | COc1ccc(OC)c(NC2=C(Cl)C(=O)N(c3ccccc3)C2=O)c1 | -8.56%
100 | CCOc1cc(C2C(C#N)=C(N)Oc3[nH]nc(C)c32)ccc1OCc1cccc(F)c1 (stereo not shown) | 1.82%
